The values below come from publication PMC4336329 (PLoS ONE, 2015).

The structures appear in SMILES notation. Screen size: about 310,000 compounds; about 14,000 (4.5%) showed an effect of 50% or more. Effects have a minus sign here. This is one part of the list.
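Also: peak tail current of the secondary pulse compared with the same well before compound.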

In this assay the target is human ether-à-go-go-related gene (hERG) potassium channel (human, UniProt Q12809). Nature of the assay: primary screen, population patch clamp on CHO cells stably expressing hERG.
Chain of human ether-à-go-go-related gene (hERG) potassium channel (Q12809 whole entry, looked up): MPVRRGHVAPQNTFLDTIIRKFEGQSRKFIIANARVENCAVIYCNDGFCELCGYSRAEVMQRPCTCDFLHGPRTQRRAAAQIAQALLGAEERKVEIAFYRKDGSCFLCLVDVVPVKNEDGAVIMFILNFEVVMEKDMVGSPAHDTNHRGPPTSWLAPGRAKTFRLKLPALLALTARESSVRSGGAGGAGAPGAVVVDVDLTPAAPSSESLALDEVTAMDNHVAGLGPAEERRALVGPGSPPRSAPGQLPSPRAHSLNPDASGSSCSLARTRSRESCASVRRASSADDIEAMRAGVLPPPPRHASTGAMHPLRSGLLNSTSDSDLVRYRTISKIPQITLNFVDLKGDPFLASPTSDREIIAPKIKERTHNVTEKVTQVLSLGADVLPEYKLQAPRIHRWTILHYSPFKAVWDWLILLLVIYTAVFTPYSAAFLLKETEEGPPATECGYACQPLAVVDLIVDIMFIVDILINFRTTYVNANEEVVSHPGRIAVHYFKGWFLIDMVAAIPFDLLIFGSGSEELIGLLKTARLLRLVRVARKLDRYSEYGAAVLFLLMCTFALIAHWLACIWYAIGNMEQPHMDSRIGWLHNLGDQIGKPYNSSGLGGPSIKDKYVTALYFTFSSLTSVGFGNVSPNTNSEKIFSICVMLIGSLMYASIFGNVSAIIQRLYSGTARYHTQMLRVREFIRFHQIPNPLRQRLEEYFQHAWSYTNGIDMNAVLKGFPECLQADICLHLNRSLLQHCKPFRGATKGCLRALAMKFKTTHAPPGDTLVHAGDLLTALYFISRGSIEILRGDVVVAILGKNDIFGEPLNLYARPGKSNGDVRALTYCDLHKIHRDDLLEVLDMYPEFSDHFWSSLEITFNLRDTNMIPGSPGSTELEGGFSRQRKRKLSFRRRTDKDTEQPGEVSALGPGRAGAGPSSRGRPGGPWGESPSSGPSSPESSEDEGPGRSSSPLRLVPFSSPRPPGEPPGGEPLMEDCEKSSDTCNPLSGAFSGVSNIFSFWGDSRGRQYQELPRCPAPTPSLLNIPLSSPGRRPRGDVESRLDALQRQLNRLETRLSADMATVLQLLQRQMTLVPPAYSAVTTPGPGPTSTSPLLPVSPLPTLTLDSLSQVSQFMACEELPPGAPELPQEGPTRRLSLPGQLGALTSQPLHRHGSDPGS
Turning to `CCCNC(=O)CN(C)S(=O)(=O)c1c(C)cc(C)cc1C`, the “hERG current change (%, negative = inhibition) at 10uM” value is 6.62%.

Take `O=C(NCc1ccc2c(c1)OCO2)Nc1cccc2ccccc12`: the “hERG current change (%, negative = inhibition) at 10uM” value is listed as 0.281%.

In the case of `Cc1ccccc1Nc1nc(N)nc(CSc2nnc(-c3ccccc3)n2C)n1`, the “hERG current change (%, negative = inhibition) at 10uM” value is listed as -12.2%.

Consider `CCOc1ccc(C(=S)NC2CCCCC2)cc1OC`, for which the “hERG current change (%, negative = inhibition) at 10uM” value is -1.75%.

Regarding `Cc1ccc(NS(=O)(=O)c2ccc(Cl)c(C(=O)O)c2)cc1S(=O)(=O)N1CCOCC1`, the “hERG current change (%, negative = inhibition) at 10uM” value is listed as 11.3%.

Turning to `CCCOC(=O)c1ccc(NC(=O)CCOc2ccccc2)cc1`, the “hERG current change (%, negative = inhibition) at 10uM” value is -2.82%.

As for `CCCCNc1nc2c(c(=O)n(Cc3ccccc3)c(=O)n2C)n1C`, the “hERG current change (%, negative = inhibition) at 10uM” value is 14%.

With `CCOCN(C(=O)Cn1c(C(C)O)nc2ccccc21)c1c(C)cccc1CC` (stereo not drawn), the “hERG current change (%, negative = inhibition) at 10uM” value came to 4.08%.

On to `O=C(Nc1cccc(F)c1)c1ccco1`, for which the “hERG current change (%, negative = inhibition) at 10uM” value amounted to 12%.

For the compound `O=C(NC1=NCCS1)c1sc2ccccc2c1Cl`, the “hERG current change (%, negative = inhibition) at 10uM” value is 7.85%.

As for `O=c1[nH]c(/C=C/c2ccccc2F)nc2ccccc12`, the “hERG current change (%, negative = inhibition) at 10uM” value amounted to 11.6%.

As for `Cc1ccc(C(=O)N/C(=C\c2cccs2)C(=O)NCCCn2ccnc2)cc1C`, the “hERG current change (%, negative = inhibition) at 10uM” value is on record as -61%.

For the compound `COc1ccc(NC(=O)COC(=O)c2c(-c3ccccc3)noc2C)cc1`, the “hERG current change (%, negative = inhibition) at 10uM” value came to 0.159%.

For `S=c1[nH]nc(CCCc2n[nH]c(=S)o2)o1`, the “hERG current change (%, negative = inhibition) at 10uM” value is recorded as 19.1%.

For `O=C(Cc1noc2ccccc12)Nc1ccc2ccccc2c1`, the “hERG current change (%, negative = inhibition) at 10uM” value stood at 0.898%.

Consider `Cc1ccc2c(c1)CCCN2C(=O)c1ccncc1`, for which the “hERG current change (%, negative = inhibition) at 10uM” value was determined as 7.75%.

`O=C(NC12CC3CC(CC(C3)C1)C2)c1cc2nc(-c3ccco3)cc(C(F)(F)F)n2n1`: the “hERG current change (%, negative = inhibition) at 10uM” value is given as 3.96%.

In the case of `COc1ccc([C@H]2CC(=O)C=C(c3cccc(C(F)(F)F)c3)C2)cc1`, the “hERG current change (%, negative = inhibition) at 10uM” value is recorded as -14.4%.

As for `COc1cc2sc3ccc(C#Cc4ccccn4)cc3c(=O)c2cc1OC`, the “hERG current change (%, negative = inhibition) at 10uM” value came out at 14.9%.

Regarding `O=S(=O)(N1CCCCC1)N1CCN(c2cc(Cl)ccc2Cl)CC1`, the “hERG current change (%, negative = inhibition) at 10uM” value came to 15.2%.

As for `Cc1nc2sc(C(c3cccs3)N3CCN(c4cccc(Cl)c4)CC3)c(O)n2n1` (stereo not drawn), the “hERG current change (%, negative = inhibition) at 10uM” value is -38.8%.

Regarding `Cc1c(NC(=O)C(C)Sc2nc(N)cc(=O)[nH]2)c(=O)n(-c2ccccc2)n1C` (stereo not drawn), the “hERG current change (%, negative = inhibition) at 10uM” value came to 18.5%.

Turning to `COC(=O)Nc1ccc(C)c2nsnc12`, the “hERG current change (%, negative = inhibition) at 10uM” value is recorded as -1%.

As for `COc1ccc(C2=Nc3cc(C)ccc3OC2)cc1`, the “hERG current change (%, negative = inhibition) at 10uM” value was found to be 12.9%.

In the case of `CS(=O)(=O)Nc1ccc(C2=NN(S(=O)(=O)c3ccc(F)cc3)C(c3ccco3)C2)cc1` (stereo not drawn), the “hERG current change (%, negative = inhibition) at 10uM” value is recorded as -70.2%.

As to `CC1=C(C(=O)OCc2ccccc2)C(c2ccc3ccccc3c2)NC(=O)N1CCCCCC(=O)O` (stereo not drawn), the “hERG current change (%, negative = inhibition) at 10uM” value was -14.1%.

Consider `N#C/C(=C/c1ccc2c(c1)OCO2)C(=O)Nc1ccc(O)cc1`, for which the “hERG current change (%, negative = inhibition) at 10uM” value is -0.516%.

For `CCN(c1ccc(NC(=O)COC(=O)c2cc3ccccc3oc2=O)cc1)C(C)C`, the “hERG current change (%, negative = inhibition) at 10uM” value was -3.57%.

For `CC(OC(=O)c1cccc(NS(C)(=O)=O)c1)C(=O)Nc1ccc(N2CCOCC2)cc1` (stereo not drawn), the “hERG current change (%, negative = inhibition) at 10uM” value was 3.1%.

Consider `CCSc1nnc(NC(=O)c2ccccc2C)s1`, for which the “hERG current change (%, negative = inhibition) at 10uM” value is 17.6%.

For the compound `COCCn1c(SCC(=O)c2ccccc2)nc2ccccc2c1=O`, the “hERG current change (%, negative = inhibition) at 10uM” value was -12.4%.

Consider `CC(=O)CCc1ccc(OC(=O)c2cccnc2)cc1`, for which the “hERG current change (%, negative = inhibition) at 10uM” value came to 14.4%.

On to `CSc1nnc(Cn2c(=O)sc3ccccc32)n1-c1ccccc1C`, for which the “hERG current change (%, negative = inhibition) at 10uM” value is 4.71%.

`CCN(CC)c1ccc(NC(=O)Nc2cccc(C(C)=O)c2)cc1`: the “hERG current change (%, negative = inhibition) at 10uM” value is -6.8%.

Turning to `Cn1nnnc1SCC(=O)NC(=O)NCc1ccccc1`, the “hERG current change (%, negative = inhibition) at 10uM” value is recorded as 8.75%.

With `CC(=O)OC(C(=O)NC1CCCCC1)c1ccc(C)cc1` (stereo not drawn), the “hERG current change (%, negative = inhibition) at 10uM” value was found to be 5.65%.

Consider `Cc1noc(C)c1C(=O)N(CC(=O)Nc1ccccc1Br)Cc1ccco1`, for which the “hERG current change (%, negative = inhibition) at 10uM” value was -13.4%.

`CCC1CCCCN1CCNC(=O)C1CCN(S(=O)(=O)c2c(C)noc2C)CC1` (stereo not drawn): the “hERG current change (%, negative = inhibition) at 10uM” value was found to be 3.12%.

Take `CN(C)C(=O)CN1C(=O)NC(c2ccccc2)(c2ccccc2)C1=O`: the “hERG current change (%, negative = inhibition) at 10uM” value is listed as -1.04%.

Turning to `CCC(=O)c1ccc(N2CCN(C(=O)c3ccccc3Br)CC2)c(F)c1`, the “hERG current change (%, negative = inhibition) at 10uM” value is given as -26.8%.

For `O=C1CC[C@@H](O)CCN1CC[C@H](Sc1ccc(Br)cc1)c1ccccc1`, the “hERG current change (%, negative = inhibition) at 10uM” value was -29.6%.

`O=C(O)C1(c2ccccc2)CCN(S(=O)(=O)c2cccc(Cl)c2)CC1`: the “hERG current change (%, negative = inhibition) at 10uM” value was 9.58%.

As to `O=C(CN1CCN(Cc2cccc(Cl)c2)C1=O)N1CCC2(CC1)OCCO2`, the “hERG current change (%, negative = inhibition) at 10uM” value is reported as 14.7%.

Regarding `CC(C)c1ccc2c(c1)C(=O)NC(C)(C)C2`, the “hERG current change (%, negative = inhibition) at 10uM” value is recorded as -9.41%.

On to `COc1cccc(C2SCC(=O)N2c2cccc(C)c2)c1OC` (stereo not drawn), for which the “hERG current change (%, negative = inhibition) at 10uM” value is recorded as -10.7%.
